From article PMC4860835 come the findings set out here.

Sequences of proteins named here, by UniProt entry; tags and fusion partners are left off.
UniProt Q99816: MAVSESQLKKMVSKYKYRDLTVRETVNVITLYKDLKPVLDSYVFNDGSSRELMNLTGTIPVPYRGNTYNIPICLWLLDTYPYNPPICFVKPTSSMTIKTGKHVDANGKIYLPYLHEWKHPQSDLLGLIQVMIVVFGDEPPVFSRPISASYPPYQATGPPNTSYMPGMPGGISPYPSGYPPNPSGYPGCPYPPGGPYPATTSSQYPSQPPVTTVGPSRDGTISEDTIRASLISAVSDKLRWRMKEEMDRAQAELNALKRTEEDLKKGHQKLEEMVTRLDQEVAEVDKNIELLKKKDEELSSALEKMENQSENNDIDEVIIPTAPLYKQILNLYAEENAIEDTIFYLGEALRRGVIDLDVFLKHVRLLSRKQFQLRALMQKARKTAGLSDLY
UniProt Q8WUM4: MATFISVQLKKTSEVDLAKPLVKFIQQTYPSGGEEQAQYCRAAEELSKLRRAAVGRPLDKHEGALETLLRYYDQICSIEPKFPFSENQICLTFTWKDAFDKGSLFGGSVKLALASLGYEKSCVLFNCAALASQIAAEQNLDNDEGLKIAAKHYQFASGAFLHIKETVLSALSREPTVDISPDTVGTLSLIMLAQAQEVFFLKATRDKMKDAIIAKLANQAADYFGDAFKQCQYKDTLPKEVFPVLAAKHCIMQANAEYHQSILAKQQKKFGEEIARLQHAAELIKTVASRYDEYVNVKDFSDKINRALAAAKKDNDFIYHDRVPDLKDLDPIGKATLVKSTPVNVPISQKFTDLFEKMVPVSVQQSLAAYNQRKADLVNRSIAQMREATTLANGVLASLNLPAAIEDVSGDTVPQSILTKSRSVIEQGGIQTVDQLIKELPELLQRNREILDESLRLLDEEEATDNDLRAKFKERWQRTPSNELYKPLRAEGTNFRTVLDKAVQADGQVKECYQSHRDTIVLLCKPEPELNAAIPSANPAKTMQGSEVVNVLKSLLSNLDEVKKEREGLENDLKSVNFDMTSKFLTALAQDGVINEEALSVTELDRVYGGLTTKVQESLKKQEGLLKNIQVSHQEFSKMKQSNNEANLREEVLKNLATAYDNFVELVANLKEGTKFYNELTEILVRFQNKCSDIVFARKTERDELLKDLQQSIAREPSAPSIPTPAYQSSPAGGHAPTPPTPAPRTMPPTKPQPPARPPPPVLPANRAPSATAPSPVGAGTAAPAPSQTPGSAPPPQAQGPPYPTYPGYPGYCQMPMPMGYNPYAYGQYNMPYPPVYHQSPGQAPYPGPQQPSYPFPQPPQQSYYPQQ

These are yes or no findings as the source states them, for the method shown. Binding seen in cells or lysates may run through a third protein. Some binding calls cover weakened binding; strength is not graded here. For part of these data: Sequences can lack the tags named with a protein.

Test [1] addresses FLAG-TSG101 (UniProt Q99816). Description: co-IP.
Test [2] addresses T1, FLAG-CHMP4B (UniProt Q9H444).
T1 sequence: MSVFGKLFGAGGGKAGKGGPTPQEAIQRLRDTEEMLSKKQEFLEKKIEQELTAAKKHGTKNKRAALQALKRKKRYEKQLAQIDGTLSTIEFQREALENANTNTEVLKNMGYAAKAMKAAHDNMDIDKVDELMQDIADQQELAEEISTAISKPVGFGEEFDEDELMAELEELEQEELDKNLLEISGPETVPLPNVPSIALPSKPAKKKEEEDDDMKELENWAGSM
Nature of the test: co-IP; monoclonal anti-FLAG immunoprecipitation from cytosol of HEK293 cells expressing FLAG-CHMP4B or FLAG-TSG101, mixed with 10 μM CaCl2 or CaCl2 plus GST-ALG-2.

The target of test [3] is FLAG-TSG101 (UniProt Q99816). The description is as above.
Test [4] concerns the target T1, FLAG-CHMP4B. Nature of the test: condition: only control cytosol, without added CaCl2 or GST-ALG-2; co-IP; monoclonal anti-FLAG immunoprecipitation from control cytosol (no CaCl2 or GST-ALG-2 added) of HEK293 cells expressing FLAG-CHMP4B or FLAG-TSG101; TBS pH 7.4.
The target in test [5] is FLAG-TSG101 (UniProt Q99816). The description is as above.
Test [6] addresses ALIX (endogenous, HEK293 cells) (human (endogenous in HEK293)) (UniProt Q8WUM4). Description: co-IP; 3A9 anti-ALIX immunoprecipitation from pooled soluble (S) fractions of flotation centrifugation, 0.1% Triton X-100; HEK293 cells expressing FLAG-ALG-2 and treated with A23187 (Figure 4c) or serum-starved or EGF-stimulated (Figure 4d).
For test [7] the target is unchanged. Description: co-IP; 3A9 anti-ALIX immunoprecipitation from pooled membrane (M) fractions of flotation centrifugation, 0.1% Triton X-100; HEK293 cells expressing FLAG-ALG-2 and treated with A23187 (Figure 4c) or serum-starved or EGF-stimulated (Figure 4d).
Test [8] has the same target. Nature of the test: co-IP; 1A3 anti-ALIX immunoprecipitation from cytosol of HEK293 cells expressing FLAG-TSG101, incubated with GST-ALG-2 plus CaCl2 for 30 min, then 30 min with or without EGTA.
Test [9] deals with FLAG-TSG101 (UniProt Q99816). Nature of the test: co-IP; polyclonal anti-FLAG immunoprecipitation from cytosol of HEK293 cells co-expressing FLAG-TSG101 and WT or ∆TDS GFP-ALIX, in the presence or absence of supplemented GST-ALG-2 and CaCl2.

With “ALIX (endogenous, HEK293 cells) (from UniProt Q8WUM4 1-868)”, the binding entry was “binds” in [1]; “binds” in test [2]; “binds” in test [3]; “no binding” in test [4]; “no binding” in test [5].

“TSG101 (endogenous, HEK293 cells) (from UniProt Q99816 1-390)”: the binding result in test [6] is listed as “no binding (condition: in the soluble (S) fraction)”; in test [7], “binds”.

On to FLAG-TSG101 (from UniProt Q99816 1-390), for which, in test [8], the binding result is “binds”.

Turning to WT GFP-ALIX (from UniProt Q8WUM4 1-868), the binding entry in test [9] is reported as “binds”.
